The data set concerns the molecule itself. In words: AUC; sedimentation velocity; samples at an absorbance of 0.5 at 280 nm, 20 °C, 42,000 rpm, c(s) distribution model in SEDFIT; self-association (oligomeric state from fit MW).

B1: Full-length HRI K196M, catalytically dead mutant (enzyme)
chain: not shown
notes: Catalytically dead, so not autophosphorylated; also called HRI-FL-K196M; His-HRI-FL-K196M
In the case of B1, the “stoichiometry N” value worked out at 2.

The record behind these values is PMC9520036, “The heme-regulated inhibitor kinase requires dimerization for heme-sensing activity” (The Journal of Biological Chemistry, 2022).
